Reference: PubChem BioAssay AID1508624 (National Center for Advancing Translational Sciences (NCATS), 2021)
The whole screen tested about 48,000 compounds, of which about 120 (0.25%) were called active. Inconclusive means that the source gave no clear call. Such entries were picked first, then a sample of the others. Calls follow the shape of the dose curve; as a rule, active = well fitted activation curve with a large enough effect; inconclusive = small, poorly fitted or top-dose-only effect, or another doubt; inactive = no such curve, though single readings can be large or run the other way. Potencies of inconclusive entries are doubtful fits and often do not repeat.

Assay: Primary qHTS for Identification of Small Molecule Activators of Huntingtin-Antisense Promoter Activity; also: nearly all actives have a fitted effect of over 55% in size
Conditions: HEK293 HTT-AS promoter firefly luciferase reporter, 24 h; activity change, positive = activation: at 57.5 µM (top of the series), percent change from vehicle, -100% = no light unless noted
Source text: Assay Provider: Russell L. Margolis M.D.
Department Neurology, Johns Hopkins University School of Medicine, Baltimore, MD
Huntington's Disease (HD) is a neurodegenerative disorder caused by a CAG repeat expansion in exon 1 of huntingtin (HTT). While there are currently no disease-modifying treatments for HD, recent efforts have focused on development of nucleotide-based therapeutics to lower HTT expression. As an alternative to siRNA or oligonucleotide methods, we hypothesized that suppression of HTT expression might be accomplished by small molecules that either (1) directly decrease HTT expression by suppressing HTT promoter activity or (2) indirectly decrease HTT expression by increasing the promoter activity of HTT-AS, the gene antisense to HTT that appears to inhibit expression of HTT.
We developed and employed a high throughput screen for modifiers of HTT and HTT-AS promoter activity using luminescent reporter HEK293 cells; of the 52,041 compounds tested, we identified 898 replicable hits. We used a rigorous stepwise approach to assess compound toxicity and the capacity of the compounds to specifically lower huntingtin protein in 5 different cell lines, including HEK293 cells, HD lymphoblastoid cells, mouse primary neurons, HD iPSCs differentiated into cortical-like neurons, and HD hESCs. We found no compounds which were able to lower huntingtin without lowering cell viability in all assays, though the potential efficacy of a few compounds at non-toxic doses could not be excluded.
SEQUENCE No. (1, 2, 3, etc.); […] (e.g., Cells, Incubation, Reagent, etc.); VALUE and DESCRIPTION.
1; Reagent; 4 uL; 2,500 Hek293 luciferase reporter cells per wells
3; Compound; 23 nL; Control inhibitor / compound library
5; Reagent; 2.5 uL; Firefly Luc reagent; Dual-Glo Luciferase Reporter Assay System (Promega)
6; Time; 10 min; room temperature incubation
7; Detection; Luminescence; FLuc
NOTES (numbers refer to sequence above)
1; High-throughput screening, measuring luminescence from a Hek293 luciferase reporter, was performed in 1,536 well white-walled tissue-culture treated plates. 2,500 cells were plated in 4 µL of Opti-MEM per well using a Multidrop Combi Reagent Dispenser (ThermoFisher).
2; Assay plates were cultured for 24 hours.
3; Control inhibitor (PTC124; final concentration of 50 uM) and compound library (at final concentrations of 460 nM - 57.5 uM) were added to the assay plate using the Kalypsis Pintool Robotic System equipped with 1536 pinheads.
4; Cells were then incubated for 24 hours at 37 degrees C prior to luminescence measurements.
5; In all cases, luminescence was measured using the Dual-Glo Luciferase Reporter Assay System (Promega) following the manufacturer's instructions.
6; Room temperature incubation.
7; Luminescence signal was obtained using the PerkinElmer ViewLux plate reader. Results were normalized to vehicle control (0% activity) and zero RLU (-100% activity).
Potency is read from the fitted curve at half-maximal effect; tags tell the direction and shape of the fitted curve.

Structure (SMILES) | Potency | activity change, positive = activation
Cc1[nH]c2ccc(C(=O)NCCc3ccccc3Cl)cc2c1C | inconclusive: 14.1 µM [activator, partial curve, poor fit] | –
COc1cccc(OCc2nc3ccccc3n2C)c1 | inconclusive: 2 µM [activator, full curve, poor fit] | –
CN(Cc1ccccc1)S(=O)(=O)c1ccc(F)c(C(=O)Nc2cc(Cl)cc(Cl)c2)c1 | – | inactive: -23.6%
CCc1nn2c(=O)cc(COC(=O)c3cccs3)nc2s1 | inconclusive: 12.6 µM [activator, partial curve] | –
Cc1ccc(C2C=C(c3ccc(F)cc3)Nc3nc(CCCO)nn32)cc1 (stereo unspecified) | – | inactive: -11.1%
O=C(CN1C(=O)CCc2cc(S(=O)(=O)N3CCOCC3)ccc21)NCc1ccccc1Cl | – | inactive: -4.4%
O=C1NC(O)CCN1[C@@H]1O[C@H](CO)[C@H](O)[C@H]1O (stereo partly specified) | – | inactive: -9.54%
CC(=O)c1ccc(N2CCN(C(=O)c3cc4ccc5cccnc5c4[nH]3)CC2)cc1 | – | inactive: -11%
COc1ccc(-c2noc(N3CCN(c4ccc(C)cc4)C(C)C3)n2)cc1OC (stereo unspecified) | – | inactive: -30.9%
Cn1ccc2c(OCC(=O)Nc3ccc([N+](=O)[O-])cc3)cccc2c1=O | – | inactive: -33.5%
Cc1cccc(OCC(=O)Nc2ccc3oc(-c4ccccc4F)nc3c2)c1 | inconclusive: 1.26 µM [activator, partial curve, poor fit] | –
CCn1ccc2cc(S(=O)(=O)N3CCCN(C(=O)NCC(=O)OC)CC3)ccc21 | – | inactive: 4.15%
O=C(COc1ccccc1[N+](=O)[O-])N1CCC(c2nc3ccccc3o2)CC1 | – | inactive: -12.5%
COc1ccc(-c2coc3cc(O)ccc3c2=O)cc1 | inconclusive: 7.69 µM [activator, partial curve] | –
CCCC(=O)c1cc(O)c(O)cc1O | – | inactive: -35.7% [at 116 µM, percent change from vehicle, -100% = no light]
Cn1cc(C(c2ccccc2)c2ccc(Cl)s2)c2ccccc21 (stereo unspecified) | – | inactive: -16.4%
O=c1oc2c(CN3CCCC3)c(O)ccc2cc1-c1ccccc1 | inconclusive: 17.8 µM [activator, single point] | –
CCOC(=O)c1ccc(NC(=O)Cn2ncc3c(C)n(Cc4ccccc4F)c(C)c3c2=O)cc1 | – | inactive: -0.953%
CCOc1ccc2nc(NC(=O)c3ccccc3)sc2c1 | inconclusive: 0.178 µM [activator, full curve, poor fit] | –
O=c1c(N2CCCCC2)csc2ccc(F)cc12 | inconclusive: 22.4 µM [activator, single point] | –
COc1ccc(-c2nc3ccccc3s2)cc1NC(=O)COc1cccc(C)c1 | inconclusive: 1.41 µM [activator, partial curve, poor fit] | –
CCCSc1nnc2c(n1)OC(c1ccc(OCC(=O)O)cc1)Nc1ccccc1-2 (stereo unspecified) | inconclusive: 12.6 µM [activator, partial curve, poor fit] | –
CCc1cccc(NC(=O)c2oc3ccc4c(c3c2C)C(=O)CC(C)(C)O4)c1 | inconclusive: 1.26 µM [activator, partial curve, poor fit] | –

Structure (SMILES) | Potency | activity change, positive = activation
Cc1ccccc1C(=O)OCc1cc(=O)n2c(C)csc2n1 | inconclusive: 4.47 µM [activator, full curve] | –
Cc1c(-c2cccc(NC(=O)c3ccc(F)c(F)c3)c2)nc2ncccn12 | – | inactive: -11.1%
CC(=O)c1ccc(NS(=O)(=O)c2cnc(N)nc2)cc1 | – | inconclusive: 11.9% [activator]
CN1CCc2c(sc3c2C(=O)NC(c2ccc(OC(=O)c4ccccc4)cc2)N3)C1 (stereo unspecified) | inconclusive: 7.94 µM [activator, partial curve] | –
COc1ccccc1N1CCN(c2ncnc3onc(-c4ccc(F)cc4)c23)CC1 | – | inactive: -11.1%
Cc1ccc(C)c(NC(=O)C2CCCN(c3nc4ccccc4s3)C2)c1 (stereo unspecified) | inconclusive: 14.1 µM [activator, partial curve, poor fit] | –
Clc1ccc2c(c1)C(N1CCNCC1)=Nc1ccccc1O2 | inconclusive: 0.172 µM [activator, full curve, poor fit] | –
O=C(c1cc(Cc2n[nH]c(=O)c3ccccc23)ccc1F)N1CCN(C(=O)C2CC2)CC1 | – | inactive: -33.3%
CCN(CC)S(=O)(=O)c1cccc(C(=O)Nc2ccccc2C(=O)Nc2ccc(OC)cc2)c1 | – | inconclusive: -27.6% [activator]
COc1ccc(N2CCN(CC(O)COc3c(OC)cccc3OC)CC2)cc1 (stereo unspecified) | – | inactive: -8.85%
CCOc1ccc(-c2cn3nc(CC(C)C)sc3n2)cc1 | inconclusive: 3.98 µM [activator, partial curve] | –
CCc1nccn1S(=O)(=O)c1cc(Br)ccc1Br | inconclusive: 2.24 µM [activator, single point] | –
CC(C)(C)c1ccc(C(=O)Nc2nnc3n2CCS3)cc1 | inconclusive: 3.55 µM [activator, partial curve, poor fit] | –
COc1cc(C(C)C)c(Oc2cnc(NC(CO)CO)nc2N)cc1I | – | inactive: -12.6%
O=C1CC(c2ccc(Br)cc2)c2c(ccc3ccccc23)N1 (stereo unspecified) | inconclusive: 0.355 µM [activator, full curve, poor fit] | –
CCc1ccc(S(=O)(=O)c2cn(Cc3ccc(OC)cc3)c3cc(OC)c(OC)cc3c2=O)cc1 | – | inactive: 1.06%
Cc1ccc(-c2noc(-c3cccnc3NCc3ccc(Cl)cc3)n2)cc1 | inconclusive: 20 µM [activator, partial curve, poor fit] | –
COc1ccc(NC(=O)c2sc3nc[nH]c(=O)c3c2C)cc1 | inconclusive: 5.01 µM [activator, partial curve] | –
Cc1ccc(NC(=O)Cn2cc(S(=O)(=O)N3CCN(c4ccccc4F)CC3)c3ccccc3c2=O)cc1F | – | inactive: -15%
CCOc1ccc(/C=C/c2nc(C#N)c(N(C)C)o2)cc1 | inconclusive: 2.24 µM [activator, partial curve, poor fit] | –
CC(C)c1ccc(CNc2nc(-c3ccco3)nn2S(=O)(=O)c2ccccc2)cc1 | inconclusive: 5.62 µM [activator, partial curve, poor fit] | –
CCc1ccc(NC(=O)N(Cc2c[nH]c3ccccc23)C2CCCCCC2)cc1 | inconclusive: 2.82 µM [activator, full curve, poor fit] | –
Cc1cc2nn(-c3ccc(F)cc3)nc2cc1NC(=O)c1cc(Cl)ccc1Cl | inconclusive: 11.2 µM [activator, partial curve, poor fit] | –
